Measured values published in PubChem BioAssay AID686979 (National Center for Advancing Translational Sciences (NCATS), 2013).
About 50,000 (12%) of roughly 420,000 compounds were called active. The inconclusive results got no clear call from the source; some entries with a clear call stand among them for comparison. The call rests on the fitted dose curve; in most records, active means well fitted inhibition curve with a large enough effect; inconclusive means small, poorly fitted or top-dose-only effect; inactive means flat fitted curve, though single readings scatter. No potency is given beside an inconclusive call; the fits are too rough.
On the % scale 0 is the no-effect control and ±100 the full control effect; potency means the concentration at half of the fitted maximal effect; tags describe the fitted curve by direction and shape.

Experiment: qHTS for Inhibitors of human tyrosyl-DNA phosphodiesterase 1 (TDP1): qHTS in cells in presence of CPT; further: nearly all actives have a fitted effect of over 55% in size
Conditions: chicken DT40 Tdp1-/-;hTDP1 cells + 20 nM CPT, ATP luminescence, 48 h; activity change, negative = growth inhibition: at 46.2 µM (top of the series) unless noted
Summary of the method: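 Cell growth measured by CellTiter-Glo luminescence after a minimum 48 h, 37 C compound exposure with 20 nM CPT in Tdp1-knockout DT40 cells stably expressing hTDP1, seeded 400/well; qHTS titration format.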
For COc1ccccc1NS(=O)(=O)c1cccc(NC(=O)c2[nH]c(C)c(C(C)=O)c2C)c1, the Potency was inconclusive [inhibitor, single point].
In the case of O=C1CN(C(=O)COc2ccc(Cl)cc2)C(c2ccc(F)cc2)c2cc(Br)ccc2N1 (centres undefined), the Potency is reported as inconclusive [inhibitor, single point].
In the case of O=C(CNS(=O)(=O)c1ccc([N+](=O)[O-])cc1)N/N=C\c1ccc(O)cc1, the Potency is reported as inconclusive [inhibitor, full curve, poor fit].
With CC(=O)C1=C(c2ccc(Cl)c(Cl)c2)N(C(C)=O)n2cnnc2S1 the Potency was active: 2.59 µM.
In the case of CC1CC(C)CN(S(=O)(=O)c2ccc3c(c2)C(C)(C)C(=O)N3C)C1 (centres undefined), the Potency is reported as inconclusive [inhibitor, single point].
With CN(C(=O)c1ccc(COc2ccccc2Br)o1)c1ccccc1 the “activity change, negative = growth inhibition” value was inactive: -20.6%.
In the case of CN1CCN(C(CNC(=O)Nc2ccc(Cl)cc2)c2ccc(F)cc2)CC1 (centres undefined), the Potency is reported as inconclusive [inhibitor, single point].
With COc1ccc(-c2nnc(SCC(=O)Nc3cccc(Cl)c3C)nc2-c2ccc(OC)cc2)cc1 the Potency was inconclusive [inhibitor, single point].
With CCn1nc(C(=O)NNC(=O)c2cc(Cl)ccc2OC)c2ccccc2c1=O the Potency was inconclusive [inhibitor, single point].
For Cc1csc(N=Nc2ccc(N(C)C)cc2)[n+]1[O-], the Potency was active: 10.3 µM.
In the case of Cc1ccc(NC(=S)N(C)C(c2ccccc2)c2ccccc2)cc1C, the Potency is reported as inconclusive [inhibitor, single point].
For Cc1ccc(C)c(N2CCN(S(=O)(=O)c3cn(C)cn3)CC2)c1, the “activity change, negative = growth inhibition” value was inactive: -2.93%.
With Cc1cc(C)n(-c2nc(C)c(C)c(=O)n2CC(=O)Nc2ccc(Cl)c(Cl)c2)n1 the Potency was active: 14.6 µM.
For Cc1ccc(C)c(S(=O)(=O)N2CCCOC2CNC(=O)C(=O)NCCN2CCOCC2)c1 (centres undefined), the “activity change, negative = growth inhibition” value was inactive: 5.48%.
In the case of Cn1c(=O)c2[nH]c(N=Nc3ccc(N)cc3N)nc2n(C)c1=O, the “activity change, negative = growth inhibition” value is reported as inactive: -5.33%.
In the case of CCCn1nc(C(=O)NC2CC2)c2ccccc2c1=O, the “activity change, negative = growth inhibition” value is reported as inactive: -10.7%.
With CC(=O)Nc1ccc(S(=O)(=O)Nc2cc(C)cn(Cc3ccc(C)cc3)c2=O)cc1 the Potency was inconclusive [inhibitor, single point].
For CCC1=Nc2cc(C(=O)NCCCOC(C)C)ccc2Sc2ccccc21, the Potency was inconclusive [inhibitor, single point].
For O=C1C2CCc3ccccc3C2N1c1ccccc1 (centres undefined), the “activity change, negative = growth inhibition” value was inactive: -4.19%.
For Cn1c(=NC(=O)CS(=O)(=O)c2ccccc2)sc2cc(F)ccc21, the Potency was inconclusive [inhibitor, partial curve, poor fit].
In the case of O=C(NNC(=O)c1ccc(SCC2CCCO2)c([N+](=O)[O-])c1)c1ccc(F)cc1 (centres undefined), the Potency is reported as inconclusive [inhibitor, partial curve, poor fit].
For CN(C)CCN(C(=O)c1cc(Cl)sc1Cl)c1nc2ccc(F)cc2s1, the “activity change, negative = growth inhibition” value was inactive: -10.1%.
In the case of CC(=O)Nc1ccc(NC(=O)c2c(C)nn(-c3ccccc3)c2-n2cccc2)cc1, the Potency is reported as inconclusive [inhibitor, single point].
For CN(Cc1ccccc1)C(=O)CC(c1ccccc1)c1cc(Cl)ccc1O (centres undefined), the Potency was active: 23.1 µM.
In the case of Cc1ccc(CNc2ncnc3c2cnn3-c2ccc(C)cc2C)cc1, the Potency is reported as inconclusive [inhibitor, single point].
In the case of COc1ccc(-c2cc(OC(=O)c3cccc(C)c3)c3c(C)oc(C)c3c(=O)c2)cc1, the Potency is reported as inconclusive [inhibitor, single point].
For COc1ccccc1NS(=O)(=O)c1cc(NC(=O)c2cc[n+]([O-])cc2)ccc1N1CCCC1, the Potency was inconclusive [inhibitor, single point].
For C[C@H](NC(=O)c1nc[nH]c1C(=O)NCC(=O)OCc1ccccc1)c1ccccc1, the Potency was inconclusive [inhibitor, single point].
In the case of CCc1nn2c(=O)cc(COC(=O)C3CCCCC3)nc2s1, the “activity change, negative = growth inhibition” value is reported as inactive: -4.38%.
For O=C(CN1CCCCCC1)Nc1cccc(NC(=O)CN2CCCCCC2)c1, the “activity change, negative = growth inhibition” value was inactive: -3.09%.
In the case of COc1ccc2cc1Oc1ccc(cc1)C[C@H]1c3c(cc(OC)c4c3Oc3c(ccc5c3[C@H](C2)N(C)CC5)O4)CCN1C, the Potency is reported as active: 5.8 µM.
For Cc1cc(OCCOc2cccc3cccnc23)c(C)cc1Cl, the Potency was inconclusive [inhibitor, partial curve].
With CCn1cc(C2Nc3ccccc3C(=O)N2O)c(C)n1 (centres undefined) the activity change, negative = growth inhibition was inconclusive: -32.1% [inhibitor].
In the case of COc1ccccc1C(c1nnnn1C(C)(C)C)N1CCN(Cc2ccccc2)CC1 (centres undefined), the “activity change, negative = growth inhibition” value is reported as inactive: -25.9%.
With Cc1ccc(-c2noc(CCC(=O)N(C)c3ccccc3C)n2)cc1 the Potency was inconclusive [inhibitor, single point].
With CCOC(=O)C1=C(C)N(C[C@@H]2CC[C@@H](Cc3ccc(-c4ccccc4)cc3)O2)C(=O)NC1c1ccc([N+](=O)[O-])cc1 (some centres undefined) the Potency was active: 23.1 µM.
For Cc1ccnc(SCC(=O)Nc2oc(-c3ccccc3)c(-c3ccccc3)c2C#N)n1, the Potency was inconclusive [inhibitor, single point].
In the case of CCOC(=O)c1cc(-c2ccccc2)n(CCCC(=O)Nc2ccc(C)cc2Cl)c1C, the Potency is reported as inconclusive [inhibitor, single point].
With COCC(C)n1c(C)cc(C(=O)COC(=O)c2oc3ccccc3c2C)c1C (centres undefined) the Potency was inconclusive [inhibitor, single point].
In the case of O=C(O)C1=C[C@@H](c2csc3ccccc23)C[C@@H](OCc2ccc(CO)cc2)O1, the Potency is reported as inconclusive [inhibitor, full curve, poor fit].
In the case of CC(=O)Nc1ccc(C(=O)c2ccccc2)cc1, the Potency is reported as inconclusive [inhibitor, single point].
In the case of CN(Cc1ccccc1)CC(O)COc1ccc(CNCCCOc2cccnc2)cc1 (centres undefined), the Potency is reported as inconclusive [inhibitor, single point].
In the case of CCOC(=O)N1CCN(C(=O)C[C@@H]2C[C@@]3(C(=O)OC)CC(C)(C)CC=C3N(Cc3ccco3)C2=O)CC1, the Potency is reported as inconclusive [inhibitor, single point].
For CCn1cc(C(=O)NCc2ccccc2OC)c(=O)c2cc(S(=O)(=O)N3CCCCCC3)ccc21, the Potency was inconclusive [inhibitor, partial curve].
In the case of C/C(=N\NC(=O)c1ccc(Cn2cc(Br)cn2)o1)c1cccc(NC(=O)C(C)(C)C)c1, the Potency is reported as inconclusive [inhibitor, partial curve].
With CC(=O)N1CCN(Cc2nc3cc(NC(=O)c4ccccc4)ccc3n2C)CC1 the “activity change, negative = growth inhibition” value was inactive: 2.97%.
For Cc1ccc(C(=O)Nc2c(C)cc(C)c3cccnc23)cc1, the Potency was inconclusive [inhibitor, single point].
In the case of CC1CCC(NC(=O)c2cccc(S(=O)(=O)N3CCOCC3)c2)CC1 (centres undefined), the “activity change, negative = growth inhibition” value is reported as inactive: -6.14%.
With CC(C)(C)n1nnnc1C(c1cc2ccccc2o1)N(Cc1ccccc1)Cc1ccccc1 (centres undefined) the Potency was inconclusive [inhibitor, single point].
In the case of COC(=O)c1ccc2nc(-c3cccc(Br)c3)c(Cc3ccccc3)n2c1, the Potency is reported as inconclusive [inhibitor, single point].
In the case of COc1ccc2c(c1)-c1nc(-n3ncc(C(=O)N(C)CC4CCCN(C)C4)c3C3CC3)ncc1CC2 (centres undefined), the “activity change, negative = growth inhibition” value is reported as inactive: 16%.
With CN(c1ccccc1)S(=O)(=O)c1ccc(C(=O)Nc2ncccc2O)cc1 the Potency was inconclusive [inhibitor, single point].
In the case of CN(C)c1cc[n+](CC(=O)c2ccc(Br)cc2)cc1, the Potency is reported as active: 16.4 µM.
With COc1ccc2[nH]c(C(=O)O)c(NS(=O)(=O)c3ccc(C)cc3C)c2c1 the “activity change, negative = growth inhibition” value was inactive: 7.18%.
With O=C(CO/N=C/c1ccccc1Cl)N1CCCc2ccccc21 the Potency was inconclusive [inhibitor, partial curve].
For Cc1cc(C)nc(NC(N)=NC2CCCCC2)n1, the Potency was active: 14.6 µM.
For O=C(CN1CCC(n2nnc3cc(C(F)(F)F)ccc32)CC1)NCc1cccs1, the Potency was inconclusive [inhibitor, single point].
For Cc1ccc(CNC(=O)c2cccc3c2C(=O)c2ccc(N4CCOCC4)cc2S3(=O)=O)cc1, the Potency was inconclusive [inhibitor, single point].
In the case of O=C(Nc1cccc(Cl)c1)c1ccc(NCCCN2CCOCC2)c([N+](=O)[O-])c1, the Potency is reported as inconclusive [inhibitor, partial curve].
For CNc1nc(SC(C)C(=O)Nc2ccc(Cl)c(Cl)c2)nc(N2CCOCC2)n1 (centres undefined), the Potency was inconclusive [inhibitor, partial curve].
In the case of O=C(CSc1nccn1-c1cccc(Cl)c1)NO, the Potency is reported as inconclusive [inhibitor, single point].
For CCOC(=O)Cc1csc(NC(=O)CSc2ccc(Br)cc2)n1, the Potency was inconclusive [inhibitor, single point].
With COCCNCc1ccc(Cl)cc1Cl the “activity change, negative = growth inhibition” value was inactive: -2.09%.
With COc1ccc(NC(=O)CN(C)C(=O)CCCc2nc3ccccc3c(=O)[nH]2)cc1 the “activity change, negative = growth inhibition” value was inactive: -14.2%.
In the case of Cc1ccc(S(=O)(=O)N/N=C/c2cc(Br)ccc2O)cc1, the Potency is reported as inconclusive [inhibitor, partial curve, poor fit].
For O=C(CCNS(=O)(=O)c1ccc(Br)s1)NCc1ccccc1, the “activity change, negative = growth inhibition” value was inactive: -4.05%.
With CN(C)C(=S)NC(=NCc1ccc([N+](=O)[O-])cc1)c1ccccc1 the activity change, negative = growth inhibition was inconclusive: -34.9% [inhibitor].
In the case of Cc1ccc2[nH]c(CNC(=O)c3ccc(F)cc3)cc2c1, the “activity change, negative = growth inhibition” value is reported as inactive: 0.831%.
With CCc1ccc(NC(=O)[C@H](NC(=O)[C@@H]2Cc3ccccc3CN2)c2ccccc2)cc1 the Potency was inconclusive [inhibitor, single point].
